T1: UNK ZnF1-3 (human, UniProt Q9C0B0 31-174)
T1 sequence: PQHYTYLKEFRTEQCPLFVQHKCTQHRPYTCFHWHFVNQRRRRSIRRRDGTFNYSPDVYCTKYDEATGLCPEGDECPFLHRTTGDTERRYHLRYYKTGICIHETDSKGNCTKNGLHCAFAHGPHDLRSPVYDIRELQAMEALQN

B1: chr14:100422286:100422287:-_ENSMUSG00000072294_ENSMUST00000097079|mus_hu|FALSE|FALSE (ssRNA)
RNA: GGGAGUUCUACAGUCCGACGAUCAGGGGACGUCCUGGCUUUGUUUAUUGACAAGUCCACUGGCUCAGUUUGUGUUUGGAAGUGAUCUACAGAUAACGAGUCCUCCGGGGGCUCCCCUUUCACAUUAUUUAGCAACAGGGGAACCAACAGAGGAUUGAGCAUCA
B2: chr2:32515631:32515632:+_ENSG00000119820_ENST00000437765|hu_mus|FALSE|FALSE (ssRNA)
RNA: GGGAGUUCUACAGUCCGACGAUCUUCAGGAUCCUCAUCUUCAACUUCCAAAAGCCAGCCAUAGCCUCUUUGUCUCAGAAAUGUAGUAGCUGUAGAUUCUUUGAUGAAAUCUCCGCUUACACCGAGGUUUAAUUUGACAUCUGGCAACAGAGGAUUGAGCAUCA
B3: chr15:98781188:98781189:-_ENSMUSG00000072235_ENSMUST00000097014|mus_hu|FALSE|FALSE (ssRNA)
RNA: GGGAGUUCUACAGUCCGACGAUCCCUAUUCAGGUUAGUAUAGGUUGGACGCUCAAUAUCGAGGUUUCUACGACAGAUGUCAUAGAUGGCCUCAUUGUCUACCAUGAAGGCACAAUCAGAGUGCUCCAGGGUGGUGUGGGUGGUCAACAGAGGAUUGAGCAUCA
B4: chr7:56126341:56126342:+_ENSG00000146731_ENST00000540286|hu_mus|hu_hu_hu_mus_True|18_108 (ssRNA)
RNA: GGGAGUUCUACAGUCCGACGAUCCAUAUUUCUCCUUUUGGCUCUGCGCAGAGCUACGAUCCCUUCUUUCGCAAGGGCAUCUAAGGAAAAGGGGUCAAUCCCCUUUUGAUUAAUAACAACAAAUCCUUUAUCUGAGUCACCACACAACAGAGGAUUGAGCAUCA
B5: chr2:59185810:59185811:+_ENSMUSG00000026991_ENSMUST00000151452|mus_mus|FALSE|FALSE (ssRNA)
RNA: GGGAGUUCUACAGUCCGACGAUCCCCAUCCUUUUUGUAAAUGCUCCGGAGGUCCCGGUACUGCCAUAAUGUAUUCAAGACCUGGGCUGCCGCCUUCACCACUUUCAGAGAGGAUCUGUCUCCUCUGCCUUUGGUUAUGUUCACCAACAGAGGAUUGAGCAUCA
B6: chr1:151373778:151373779:+_ENSG00000159377_ENST00000290541|hu_hu|FALSE|FALSE (ssRNA)
RNA: GGGAGUUCUACAGUCCGACGAUCAAACCGGUUGUAAGAACGGGCAUCUCGGUAGUACAGCACUCGCAUGCAGCGUUCUACUAAGUCGCGGGCCUCGGUCUGGCUUAGCACUGGCUGCUUCUCCAGAACUUCUCGCAGCAGAGGCAACAGAGGAUUGAGCAUCA
B7: chr10:33190432:33190433:-_ENSG00000150093_ENST00000302278|hu_mus|hu_hu_hu_mus_True|1_28 (ssRNA)
RNA: GGGAGUUCUACAGUCCGACGAUCUACAUUUUCCAAACCUGCAUGUGAAUAAAACCCUGGCCACAGAGCCCCAAAACUACCCUACUGUGACUAAGAUGCUGCUGCUGUUGCAUUCAGGUUGCAAAAUCCGCCUGAGUCAGUACUCAACAGAGGAUUGAGCAUCA
B8: chr12:39763582:39763583:-_ENSG00000139116_ENST00000544797|hu_mus|hu_hu_hu_mus_False|58_88 (ssRNA)
RNA: GGGAGUUCUACAGUCCGACGAUCCUCUAGGAACUGGGCAUUCACUUUAAAAUCUGGAGGGGGCAGCCCGUUUUUAAUUGCUAUGUGCUUUUUCUCAUCAAUACUCUUGAACAGGUGUCUAACAGCACGAGAGAUGAUGCCCUGCAACAGAGGAUUGAGCAUCA
B9: chrM:5821:5822:+_ENSMUSG00000064351_ENSMUST00000082402|mus_mus|motif|central (ssRNA)
RNA: GGGAGUUCUACAGUCCGACGAUCCUGUGUUAUGGCUGGGGGUUUCAUGUUGAUAAUAGUGGUAAUAAAAUUAAUUGCACCGGAAAUAGAUGACACUCCAGCUAAAUGAAGGGAGAAAAUUGUUAGGUCUACUGAUGCUCCUGCCAACAGAGGAUUGAGCAUCA
B10: chr7:149068622:149068623:-_ENSMUSG00000025139_ENSMUST00000001950|mus_mus|motif|central (ssRNA)
RNA: GGGAGUUCUACAGUCCGACGAUCAGACAGGUACUGAGUGAGGUUCCUGCUCUGCAGUGUCUGCAGUCUGCUGGUAACACGGAGUGGACCACUUAAGGAGGUUCUGCCUGCCUGACUCAUCCACCCUGCAAGAGGGCAUCUGCUCAACAGAGGAUUGAGCAUCA
B11: chrX:129364583:129364584:-_ENSG00000056277_ENST00000370978|hu_mus|FALSE|FALSE (ssRNA)
RNA: GGGAGUUCUACAGUCCGACGAUCAGUCUUCUGGCUUUCCUCAAUAGUUCCUUCAUGUCUUCCAUAAUAAAAAUCACUGACAAGCAUGAUCAGUUUUUCUUUAUCUGAGUCAGUGGUAGCUUUGCUUACAGCCUUUGAAUUUUCCAACAGAGGAUUGAGCAUCA
B12: chr16:32084594:32084595:-_ENSMUSG00000023791_ENSMUST00000096109|perfect_dup|motif|central (ssRNA)
RNA: GGGAGUUCUACAGUCCGACGAUCAGGAAGCAUUUAACUACAUAAAACUUAUAGGGAAAAAUGGCCAUAUUUGAAAACUGCGGCAAGGAUCAAUGUAGAGCACAGGAUUGUAAUGAGCAGAGUCACAGAACAUACUAGAGAGGUCAACAGAGGAUUGAGCAUCA
B13: 38794346_38796509_1608_CDS_ENSG00000006715_ENST00000395969|human|control|control (ssRNA)
RNA: GGGAGUUCUACAGUCCGACGAUCUUUAAUUGAAAUUUUAUCUUCAUUGUCCAAAAGCAUGUCAACAGCUUUCUCUGAAUCAAAAUCCAUUAAUAAAACAAUUUUAUCCUUGAUAGAACUGAAAAGAUUAUGCUUGUGGAUCAACAACAGAGGAUUGAGCAUCA
B14: chr17:56552419:56552420:-_ENSMUSG00000013236_ENSMUST00000086828|mus_mus|mus_mus_mus_hu_False|48_108 (ssRNA)
RNA: GGGAGUUCUACAGUCCGACGAUCAAAGUUUUUUUCUUUUAAAAAAAAUGAAAUGUCACGGGAUACAGUUACACUGAGAGUUUUAAAAAAAAAUAAGAUUCUGGUCCCAGCCCAGUGUCCCCAGGCUGCAGAGCGGGGAGGAGCCAACAGAGGAUUGAGCAUCA
B15: chr9:80921284:80921285:+_ENSG00000135069_ENST00000376588|hu_hu|FALSE|FALSE (ssRNA)
RNA: GGGAGUUCUACAGUCCGACGAUCUCCCUUGACAUCGGGUAUAAAGUCAAACUCCACACCAUGCACCGUCUCAUUUGCGCAAUAAUACACGUAGGAGGCAUCUGGGUUGAGGUUCCAGGUGCUUGGAUCUGGAAUUUUUGUAUACAACAGAGGAUUGAGCAUCA
B16: 71026498_71027082_381_CDS_ENSMUSG00000002010_ENSMUST00000052761|mouse|control|control (ssRNA)
RNA: GGGAGUUCUACAGUCCGACGAUCGUUGUUUCGAGAUUUGUGGGAUGGUGGCAGGUUAUGAUUUGUUUCAAUGUUGCCCUUCAGGGCCACACGGUUCCGGCGGAUGGCCAUGAUGGCAUUGCGGAUGUCCUCCUCAUCAGCGUUCAACAGAGGAUUGAGCAUCA
B17: 62228133_62228761_1639_CDS_ENSMUSG00000020074_ENSMUST00000020268|mouse|control|control (ssRNA)
RNA: GGGAGUUCUACAGUCCGACGAUCGCCUCCAAUGGCCAUGGCUUCAUCCUUGCCUUUCAUUCCCACUAGAAACUUAACAAGUCUAGCAGGAUGCUGAAAACCAUCACGAAGGUCUUGUGGGUCUUCAGCAAGAGCACAUGACUUCAACAGAGGAUUGAGCAUCA
B18: chr13:91842754:91842755:+_ENSMUSG00000003992_ENSMUST00000004094|mus_hu|motif|central (ssRNA)
RNA: GGGAGUUCUACAGUCCGACGAUCAUAUGUUCAAUGCAGCAAGAAUUGCUGAUAUUAUUACUGUGAGAUGACGUGUAAAAAUAACACGGGGAACAGGUAGUAUACAUCAAGACCAACACGAAUGCAUUGAUAAAGAUGGAAAACCAACAGAGGAUUGAGCAUCA
B19: chr4:136876768:136876769:-_ENSMUSG00000006699_ENSMUST00000051477|mus_mus|motif|central (ssRNA)
RNA: GGGAGUUCUACAGUCCGACGAUCAAACAACAAACGUUUGUGGGGAUUUUUGUUUUUUUUUUUAAACAAAGAAAACAAAAACGGGCACUCAUUGCUUUUCAGACAAUACAUAAUUAUUCAAAAUUAACUAUUACUGGAAGGGCACAACAGAGGAUUGAGCAUCA
B20: chr2:115890611:115890612:-_ENSMUSG00000027210_ENSMUST00000102538|mus_hu|FALSE|FALSE (ssRNA)
RNA: GGGAGUUCUACAGUCCGACGAUCCAAUAAACUCCUGGAUGUGUCGUAUAUUUAAUAUCCCAGUCCGGAUAAGAAAGUGAUCUAGGCUGAAGAUUCCUUUUUUUUUUUUCCAAACCAAAGAGACUUCUCCCAAUUCUCCAAUAUCAACAGAGGAUUGAGCAUCA
B21: chr1:35650007:35650008:-_ENSG00000116560_ENST00000357214|hu_mus|FALSE|FALSE (ssRNA)
RNA: GGGAGUUCUACAGUCCGACGAUCCUAACAUCCAUAAAAAGGUAGCUUGCUUACUAAAAUGCCAAGAAUUUAAGUGGUAUCUAAACAAGAAAAGACAAAACCAAACUAGAAUGAAAGCCUAAAUAUCUAAAAUCGGGGUUUUUUCAACAGAGGAUUGAGCAUCA
B22: 53586803_53589017_1067_CDS_ENSG00000023287_ENST00000025008|human|control|control (ssRNA)
RNA: GGGAGUUCUACAGUCCGACGAUCCUUGGCCAUUACUGAAACUGCAGUUCCUAAAUGAGUAAGUUUUAACUUGAUGUCUUCUAUGGACUGCAGAUAAUUUGAAUAAAUACUUUCAAACUUGAAAAGUAGCUUUUGGUAUGAAUUCAACAGAGGAUUGAGCAUCA

Some of the results follow.

The test concerns the target T1, UNK ZnF1-3. The experiment in a line: nsRBNS (natural sequence RNA bind-n-seq); RBNS binding buffer (assumed for nsRBNS): 25 mM Tris pH 7.5, 150 mM KCl, 3 mM MgCl2, 0.01% Triton X-100, 500 ug/ml BSA, 20 U/ml SUPERase-In, 4 C; UNK is unkempt and MSI1 is Musashi-1; names of the RNAs are library labels; protein concentration not given here; high values mean tight binding.
The molecule B1 registered a binding signal of 0.708 enrichment R.
In the case of B2, the binding signal was 0.837 enrichment R.
Molecule B3 displayed a binding signal of 0.684 enrichment R.
Then B4, with 0.895 enrichment R; and B5, with 0.774 enrichment R.
B6 yielded a binding signal of 1.09 enrichment R.
With B7 the figure was 1.12 enrichment R.
Then B8, with 1.98 enrichment R; and B9, with 1.77 enrichment R; and B10, with 1.05 enrichment R.
With B11 the figure was 0.725 enrichment R.
The molecule B12 gave a binding signal of 1.46 enrichment R.
With B13 the figure was 0.856 enrichment R; with B14, 2.28 enrichment R; with B15, 0.708 enrichment R.
Then B16, with 0.496 enrichment R; and B17, with 0.684 enrichment R.
In the case of B18, the binding signal was 1.09 enrichment R.
Then B19, with 0.761 enrichment R; and B20, with 0.706 enrichment R.
With B21 the figure was 1.13 enrichment R; with B22, 0.716 enrichment R.

(Values after PMC12136788.)
